# Screen size: about 390,000 compounds; about 4,700 (1.2%) were called active. Inconclusive means that the source gave no clear call. Such entries were picked first, then a sample of the others. Calls follow the shape of the dose curve; as a rule, active = well fitted inhibition curve with a large enough effect; inconclusive = small, poorly fitted or top-dose-only effect, or another doubt; inactive = no such curve, though single readings can be large or run the other way. A potency beside an inconclusive call is a rough fit, not a confirmed value.
# Target: DNA polymerase eta (Homo sapiens) (UniProt Q9Y253)
# UniProt Q9Y253, sequence (Q9Y253 whole entry, looked up): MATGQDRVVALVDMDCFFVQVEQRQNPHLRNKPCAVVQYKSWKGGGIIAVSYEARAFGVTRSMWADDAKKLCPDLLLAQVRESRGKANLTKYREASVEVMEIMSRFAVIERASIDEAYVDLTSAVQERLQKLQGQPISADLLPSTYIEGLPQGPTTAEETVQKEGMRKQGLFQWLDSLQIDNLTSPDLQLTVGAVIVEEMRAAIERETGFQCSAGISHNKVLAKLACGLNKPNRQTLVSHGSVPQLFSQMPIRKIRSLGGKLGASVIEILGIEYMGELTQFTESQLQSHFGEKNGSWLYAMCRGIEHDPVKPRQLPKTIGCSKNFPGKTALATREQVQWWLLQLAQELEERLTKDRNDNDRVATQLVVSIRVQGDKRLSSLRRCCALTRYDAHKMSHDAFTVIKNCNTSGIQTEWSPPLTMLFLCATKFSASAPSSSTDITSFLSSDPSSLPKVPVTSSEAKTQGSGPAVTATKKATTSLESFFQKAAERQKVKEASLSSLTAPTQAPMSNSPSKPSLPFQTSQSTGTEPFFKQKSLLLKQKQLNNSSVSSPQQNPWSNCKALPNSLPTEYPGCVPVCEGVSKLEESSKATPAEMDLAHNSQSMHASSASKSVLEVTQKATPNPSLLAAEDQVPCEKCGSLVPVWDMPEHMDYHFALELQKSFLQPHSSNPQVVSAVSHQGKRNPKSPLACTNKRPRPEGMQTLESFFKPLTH
# Experiment: qHTS for Inhibitors of Polymerase Eta
# Conditions: recombinant Pol eta, fluorescent DNA replication assay; series mostly up to 114 µM; activity change, negative = inhibition: at the top concentration
# Method in brief: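 Fluorescent replication assay: 50 nM final substrate added after a 15 min room-temperature compound preincubation with 10 nM enzyme. Signal taken at 0 min and again at 10 min.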
# % is scaled to controls: 0 for no effect and ±100 for the full control effect; potency is read from the fitted curve at half-maximal effect; tags tell the direction and shape of the fitted curve.
Structure (SMILES),Potency,"activity change, negative = inhibition"
CS(=O)(=O)c1ccc(C(=O)NCCN2C(=O)S/C(=C\c3cccnc3)C2=O)cc1[N+](=O)[O-],"inconclusive: 56.2 µM [inhibitor, partial curve, poor fit]",
CC1=C2C(CCS2(=O)=O)CC2(C1)C(=O)OC(C)(C)OC2=O (centres undefined),active: 79.4 µM,
COc1ccc(OC)c(/C=C2\NC(=O)NC2=O)c1,,inactive: -5.53%
CCS(=O)(=O)c1ncc(N(Cc2ccccc2)Cc2ccco2)c(C(=O)Nc2cccc(Cl)c2C)n1,"inconclusive: 79.4 µM [inhibitor, partial curve, poor fit]",
Cc1cccc(OCC(=O)NCCCNC(=O)c2ccco2)c1,,inactive: -5.77%
Cc1cccc(N2CC(C(=O)Nc3nnc(SCC(=O)N4CCOCC4)s3)CC2=O)c1 (centres undefined),active: 44.7 µM,
CC1(C)CC(=O)C2=C(C1)N(c1cccc(Cl)c1)C(=O)NC2(C(F)(F)F)C(F)(F)F,,inactive: -7.38%
Cc1ccccc1/C=C/c1nc2ccccc2c(=O)[nH]1,"inconclusive: 17.8 µM [inhibitor, full curve]",
COc1cc(C)cc(C(=O)O)c1C1=C(O)c2cccc(O)c2C(=O)C1=O,active: 15.8 µM,
CCN1CCc2c(sc(N)c2C#N)C1,"inconclusive: 28.2 µM [inhibitor, single point]",
CCC1CCC2(CC1)SCC(=O)N2c1ccccc1 (centres undefined),"inconclusive: 89.1 µM [inhibitor, partial curve, poor fit]",
C#CCOCCOCCOCCNc1nc(N2CCN(C(=O)CCCCCCCCCCNC(=O)[C@@H](CCSC)n3cc(CCO)nn3)CC2)nc(N2CCN(C(=O)CCCCCCCCCCNC(=O)[C@H]([C@@H](C)CC)n3cc(CCCCN=C(N)N)nn3)CC2)n1,active: 79.4 µM,
O=C(COc1cc2oc(=O)c3c(c2cc1Cl)CCC3)Nc1ccc(CN2CCOCC2)cc1,,inactive: -2.93%
CC(=O)c1cccc(NC(=O)c2cccc(N3C(=O)c4ccccc4C3=O)c2)c1,"inconclusive: 17.8 µM [inhibitor, full curve]",
COc1ccc(CCNC(=O)CCc2c(C)c3cc4c(C)c(C)oc4cc3oc2=O)cc1OC,,inactive: 5.63%
Cc1ccc(-c2nc3c(c(SCc4ccc(Br)cc4)n2)Cc2c(CO)cnc(C)c2O3)cc1,,inactive: -10.4%
CCCCC1=CC2=CC(=O)C(C)(OC(=O)CC)C(=O)C2=CN1C(CO)CO (centres undefined),,inactive: -14%
Cn1c2ccccc2c(=O)c2ccc(-c3ccc4c(c3)OCO4)cc21,"inconclusive: 56.2 µM [inhibitor, partial curve, poor fit]",
Cn1c(=O)n(C)c2cc(/C=N/NC(=O)c3ccc(Cl)cc3)ccc21,"inconclusive: 79.4 µM [inhibitor, partial curve, poor fit]",

# — PubChem BioAssay AID588591 (National Center for Advancing Translational Sciences (NCATS), 2011)
